PubChem BioAssay AID2147 (National Center for Advancing Translational Sciences (NCATS), 2009)
Out of some 230,000 compounds screened, about 3,600 (1.6%) were called active. This list was built around the results that the source calls inconclusive (neither active nor inactive); the mix of calls is not that of the screen. The call rests on the fitted dose curve; in most records, active means well fitted inhibition curve with a large enough effect (not every such curve was filed as active); inconclusive means small, poorly fitted or top-dose-only effect, or another doubt; inactive means no such curve, though single readings can be large or run the other way. Potencies beside an inconclusive call are fits to weak or partial responses and may not hold up.

Biological target: Lysine-specific demethylase 4E (Homo sapiens) (UniProt B2RXH2)
Chain of UniProt B2RXH2 (B2RXH2 whole entry, looked up, the tested form may be a part): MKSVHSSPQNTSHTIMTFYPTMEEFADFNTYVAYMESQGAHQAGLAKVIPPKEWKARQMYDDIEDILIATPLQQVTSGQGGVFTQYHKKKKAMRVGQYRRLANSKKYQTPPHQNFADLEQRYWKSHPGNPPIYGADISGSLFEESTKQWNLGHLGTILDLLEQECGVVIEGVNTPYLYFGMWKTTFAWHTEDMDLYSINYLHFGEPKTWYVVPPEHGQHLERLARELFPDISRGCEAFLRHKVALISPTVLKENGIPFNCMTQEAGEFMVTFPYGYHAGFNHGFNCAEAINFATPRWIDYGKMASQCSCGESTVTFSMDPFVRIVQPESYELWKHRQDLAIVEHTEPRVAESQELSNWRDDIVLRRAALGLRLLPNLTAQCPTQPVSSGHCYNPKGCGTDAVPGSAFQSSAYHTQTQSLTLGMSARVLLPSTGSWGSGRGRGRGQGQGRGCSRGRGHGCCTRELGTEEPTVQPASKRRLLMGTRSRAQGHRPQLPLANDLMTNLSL
Test: qHTS Assay for Inhibitors of Human Jumonji Domain Containing 2E (JMJD2E)
Details: JMJD2E catalytic domain, FDH-coupled NADH fluorescence (FDH is formaldehyde dehydrogenase); series mostly up to 57.1 µM
Further: nearly all actives have a fitted effect of over 50% in size.
Potency means the concentration at half of the fitted maximal effect; tags describe the fitted curve by direction and shape.

SMILES | Potency
O=C(Nc1ccccc1)C1=C[C@H](c2ccc3c(c2)OCO3)C[C@H](OCc2ccc(CO)cc2)O1 | inconclusive: 39.8 µM [inhibitor, single point]
COc1cc(C(=O)Nc2nc3ccc(S(=O)(=O)N4CCOCC4)cc3s2)cc(OC)c1OC | inconclusive: 31.6 µM [inhibitor, partial curve]
Cc1ccc(-c2nc3ncccc3o2)cc1NC(=S)NC(=O)c1ccco1 | inconclusive: 39.8 µM [inhibitor, single point]
N#C/C(=C\c1cccnc1)c1ccc(Br)cc1 | inconclusive: 39.8 µM [inhibitor, single point]
CN1CCN(CC(=O)N2CCn3c4c(c5cc(C6CCCCC6)ccc53)CCCC42)CC1 (stereo unspecified) | inconclusive: 25.1 µM [inhibitor, partial curve]
O=C(CSc1ccc2nnc(-c3ccncc3)n2n1)NCC1CCCO1 (stereo unspecified) | inconclusive: 28.2 µM [inhibitor, partial curve]
CCOC(=O)c1c(NC(=O)Cn2cnc([N+](=O)[O-])n2)sc(C)c1C | inactive
Cc1[nH]c(=O)[nH]c(=O)c1S(=O)(=O)N(C)Cc1ccccc1 | inactive
CCOC(=O)c1c(C)nn(-c2ncccc2NC(=O)CCC(=O)O)c1C | inconclusive: 0.01 µM [inhibitor, full curve, poor fit]
Cc1cc(C)c2nc(NNC(=O)c3ccc(S(=O)(=O)N4CC(C)CC(C)C4)cc3)sc2c1 (stereo unspecified) | inconclusive: 31.6 µM [inhibitor, single point]
CS(=O)(=O)N1CCN(Cc2ccccc2C(F)(F)F)CC1 | inactive
Cc1nc(Sc2nnnn2C)c2c3c(sc2n1)CCC3 | inconclusive: 35.5 µM [inhibitor, single point]
C/C(=N\OCc1nc2ccccc2c(=O)n1/N=C/c1cc(C)cc([N+](=O)[O-])c1O)c1ccccc1 | active: 14.1 µM
COc1ccc(N2C(=O)C3CCCCC3C2=O)cc1NC(=O)c1ccccc1 (stereo unspecified) | inactive
CC(C)c1nc(N2CCOCC2)c(C#N)c2c1CCC2 | inconclusive: 31.6 µM [inhibitor, partial curve]
CC1(C)OC(c2ccccc2)=C/C(=C/C=Nc2ccccc2)O1 | inactive
CC1=NN(c2ccccc2)C(=O)C1N=Nc1ccc(N)cc1 (stereo unspecified) | active: 14.1 µM
Cc1ccc(Nc2ccc(N)cc2S(=O)(=O)O)cc1 | inconclusive: 28.2 µM [inhibitor, partial curve]
Cc1nn(-c2ccc(F)cc2)c2sc(C(=O)OCC(=O)N3CCC(C)CC3)cc12 | inconclusive: 3.16 µM [inhibitor, full curve]
COc1ccc(-c2nc(C#N)c(NCCc3ccccc3)o2)cc1OC | inconclusive: 31.6 µM [inhibitor, partial curve]
Cn1cccc1Cc1nnc(SCC(=O)NC2CCCC2)n1-c1ccc(F)cc1 | inconclusive: 39.8 µM [inhibitor, single point]
Nc1nc(SCC(=O)Nc2ccc(Oc3ccccc3)cc2)n[nH]1 | inactive
O=C(O)/C=C/c1coc2ccc(F)cc2c1=O | inconclusive: 35.5 µM [inhibitor, single point]
COc1ccc(-n2c(=S)[nH]c3cc(C(=O)O)ccc3c2=O)cc1 | inconclusive: 28.2 µM [inhibitor, single point]
CN=c1nc(-c2ccccc2)n(-c2ccccc2)s1 | active: 3.16 µM
COc1ccc2oc(=O)c(-c3nnc(N)s3)cc2c1 | inconclusive: 22.4 µM [inhibitor, single point]

SMILES | Potency
Cc1ccc2nc(NC(=O)C3=NN(c4ccccc4)C(=O)CC3)sc2c1 | inconclusive: 39.8 µM [inhibitor, single point]
Cc1ccc(OCC(=O)Nc2ccc(O)c(C(=O)O)c2)cc1C | inconclusive: 31.6 µM [inhibitor, partial curve]
Cc1sc2nc(CSCC(=O)N(CCC#N)c3ccccc3)[nH]c(=O)c2c1C | inconclusive: 28.2 µM [inhibitor, single point]
Cc1cc(C(=O)Nc2nc3c(s2)CCCC3)no1 | inactive
O=C(NC1CCCCC1)C(c1ccncc1)N(CC1CCCO1)C(=O)C(F)(F)F (stereo unspecified) | inconclusive: 39.8 µM [inhibitor, single point]
Cc1ccc(N(C(C)C(=O)Nc2cc(Cl)ccc2Oc2ccccc2)S(C)(=O)=O)cc1 (stereo unspecified) | inactive
O=c1ccc(/C=C/c2ccccc2)nn1Cc1ccccc1 | inconclusive: 35.5 µM [inhibitor, single point]
Clc1ccccc1C1CC(c2ccccc2)=Nc2ccccc2N1 (stereo unspecified) | inactive
Clc1ccc(-n2nnc(-c3cccnc3)n2)cc1Cl | inactive
COCCNCC(=O)Nc1ccc(OC(F)(F)F)cc1 | inconclusive: 28.2 µM [inhibitor, single point]
COCCNC(=O)C1CCN(S(=O)(=O)N2CCC3(CC2)OCCO3)CC1 | inactive
CC(=O)Nc1ccc(S(=O)(=O)N(C)c2ccc(OCC(=O)OCC(=O)NCc3ccco3)cc2)cc1 | inactive
NNC(=O)c1cc2c(ccc3ccccc32)o1 | inconclusive: 0.0251 µM [inhibitor, full curve, poor fit]
O=C(Cn1cnc2ccccc21)OCC(=O)N1CCCc2ccccc21 | inactive
CC(=O)NCCOc1cccc(OCCNC(C)=O)c1 | inactive
O=C(Cc1ccccc1)Nc1cccc(N2C(=O)C=CC2=O)c1 | inactive
C[C@@H](C(=O)Nc1nc2ccc(F)cc2s1)N1C(=O)C2CC=CCC2C1=O (stereo partly specified) | inconclusive: 39.8 µM [inhibitor, single point]
CCN(CC)S(=O)(=O)c1ccc2c(c1)nc(SCn1nnc3ccccc3c1=O)n2CC | inactive
O=C(CCNC(=O)Cn1ccc2ccccc2c1=O)NCC1CCCC1c1ccccc1 (stereo unspecified) | inconclusive: 35.5 µM [inhibitor, single point]
Cc1cc(C)n(CCN(C)c2nc3nonc3nc2NC2CC2)n1 | inactive
Cc1ccc(C2=NN=C(NC(=O)CSc3nc(C)cc(C)n3)SC2)cc1 | inactive
CCCCNC(=O)CSc1nc2ccc(N3CCOCC3)cc2c(=O)n1Cc1ccc(OC)cc1 | inconclusive: 31.6 µM [inhibitor, partial curve]
O=C(/C=C/c1cn(-c2ccccc2)nc1-c1cccc(Cl)c1)N1CCN(c2ccccn2)CC1 | inconclusive: 35.5 µM [inhibitor, single point]
O=C(NC(=S)Nc1ccc2c(c1)C(=O)c1ccccc1C2=O)c1ccc(F)cc1 | inactive
Cc1cc(N2CCCCC2)nc2ccc(NC(=O)CCC(=O)NCCC(C)C)cc12 | inconclusive: 31.6 µM [inhibitor, partial curve]
O=c1ccc2cc3ccoc3cc2o1 | inconclusive: 31.6 µM [inhibitor, partial curve]

SMILES | Potency
CCC1CCCCN1CCCNC(=O)c1cc2c(=O)[nH]c3ccccc3c2n1C (stereo unspecified) | inconclusive: 35.5 µM [inhibitor, single point]
O=C(Nc1nc(-c2ccc(S(=O)(=O)N3CCCC3)cc2)cs1)c1cccs1 | inconclusive: 35.5 µM [inhibitor, single point]
Clc1cccc(-c2csc(Nc3cccnc3)n2)c1 | inactive
O=C(Nc1ccc(-c2ccc3nncn3n2)cc1)C1CCCCC1 | inconclusive: 35.5 µM [inhibitor, partial curve]
COC(=O)C/C=C/[C@@H](C)[C@H](O)c1ccccc1Br | inactive
COc1ccc2[nH]c3c(c2c1)CCNC3=O | inconclusive: 31.6 µM [inhibitor, partial curve]
O=C(O)[C@H]1CN(CCCP(=O)(O)O)CCN1 | inactive
Cc1cc2cc(CNC(=O)c3ccc4c(c3)OCO4)ccc2[nH]1 | inconclusive: 39.8 µM [inhibitor, single point]
CC1CCCCN1C(=O)CSc1nc(C2CC2)nc2c1cnn2-c1ccccc1 (stereo unspecified) | inconclusive: 35.5 µM [inhibitor, single point]
Cc1cc(C)n(-c2ccc(C(=O)Nc3ccc4c(c3)OCO4)cc2)n1 | inactive
COC(=O)c1sccc1NC(=O)CSc1ccccc1NS(=O)(=O)c1ccc(F)cc1 | inactive
O=C(/C=C/c1cccc([N+](=O)[O-])c1)Nc1cccc(NC(=O)c2cccs2)c1 | inactive
CCC(=O)Nc1ccc(C(=O)N/N=C/c2c(C)[nH]c3ccccc23)cc1 | inactive
CC(C)OC(=O)c1c(NC(=O)CCn2nnc3ccccc32)sc2c1CCCC2 | inactive
O=C(/C(=C/c1cccc(Cl)c1)c1nc2ccccc2[nH]1)c1ccccc1 | inconclusive: 22.4 µM [inhibitor, single point]
N=C1CCC(=N)c2c1c(O)c1ccccc1c2O | inconclusive: 22.4 µM [inhibitor, partial curve]
O=C(CSc1nc2ccccc2c(=O)[nH]1)N1CCOCC1 | inactive
COc1ccc(-n2c(=S)[nH]c3cc(C(=O)NCCCN4CCCC4=O)ccc3c2=O)c(OC)c1 | inactive
NN/C(=C\[N+](=O)[O-])Nc1ccc(Cl)cc1 | inactive
COc1ccc(CCNC(=O)C(=O)NCCOc2ccccc2Cl)cc1OC | inactive
C/C(=N\NC(=O)CN(c1ccccc1)S(C)(=O)=O)c1ccccc1O | active: 17.8 µM
COc1ccc2c(c1)CCc1cnc(N)nc1-2 | inconclusive: 28.2 µM [inhibitor, partial curve]
Nc1nc(Cl)cc(-c2ccccc2)n1 | inconclusive: 28.2 µM [inhibitor, single point]
Cc1ccc(S(=O)(=O)NC2c3cccc4cccc(c34)C2Sc2n[nH]c(N)n2)cc1 (stereo unspecified) | inactive
